This is an account of results in article PMC4336329 (PLoS ONE, 2015).

Structures are written as SMILES. The whole screen tested about 310,000 compounds, of which about 14,000 (4.5%) showed an effect of 50% or more. The effect is printed as a negative number. This is one part of the list.
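Further: peak tail current of the secondary pulse compared with the same well before compound.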

Chain of human ether-à-go-go-related gene (hERG) potassium channel (Q12809 whole entry, looked up): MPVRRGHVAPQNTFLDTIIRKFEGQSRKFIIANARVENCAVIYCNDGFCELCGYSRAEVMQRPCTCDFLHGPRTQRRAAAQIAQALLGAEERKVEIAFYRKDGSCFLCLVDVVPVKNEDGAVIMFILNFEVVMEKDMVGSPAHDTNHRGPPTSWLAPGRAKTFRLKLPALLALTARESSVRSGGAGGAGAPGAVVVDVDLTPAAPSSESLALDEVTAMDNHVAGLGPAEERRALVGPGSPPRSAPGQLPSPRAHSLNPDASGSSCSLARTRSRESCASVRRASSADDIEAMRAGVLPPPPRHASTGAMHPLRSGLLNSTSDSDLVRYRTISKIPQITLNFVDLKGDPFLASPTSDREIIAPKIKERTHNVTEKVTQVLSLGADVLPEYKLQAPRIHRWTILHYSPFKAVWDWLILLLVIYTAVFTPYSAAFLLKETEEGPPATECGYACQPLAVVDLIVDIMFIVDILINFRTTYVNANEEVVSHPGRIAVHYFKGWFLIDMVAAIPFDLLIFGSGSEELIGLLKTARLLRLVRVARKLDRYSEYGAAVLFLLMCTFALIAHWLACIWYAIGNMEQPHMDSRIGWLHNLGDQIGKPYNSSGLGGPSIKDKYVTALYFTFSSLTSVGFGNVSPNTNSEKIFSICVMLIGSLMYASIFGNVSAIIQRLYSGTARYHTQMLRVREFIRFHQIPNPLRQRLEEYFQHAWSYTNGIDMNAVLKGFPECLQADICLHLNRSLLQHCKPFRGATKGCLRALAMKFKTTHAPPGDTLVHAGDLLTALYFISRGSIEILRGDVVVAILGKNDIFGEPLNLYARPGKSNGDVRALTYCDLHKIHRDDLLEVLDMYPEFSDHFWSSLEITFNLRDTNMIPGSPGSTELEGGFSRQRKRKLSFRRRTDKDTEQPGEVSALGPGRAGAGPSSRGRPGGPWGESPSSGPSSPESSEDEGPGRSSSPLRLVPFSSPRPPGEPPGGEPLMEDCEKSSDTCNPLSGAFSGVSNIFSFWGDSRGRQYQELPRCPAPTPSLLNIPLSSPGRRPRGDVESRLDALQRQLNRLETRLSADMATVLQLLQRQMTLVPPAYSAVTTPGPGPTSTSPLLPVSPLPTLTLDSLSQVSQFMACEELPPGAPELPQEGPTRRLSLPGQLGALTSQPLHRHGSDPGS

This assay addresses human ether-à-go-go-related gene (hERG) potassium channel (human, UniProt Q12809). The assay can be described thus: primary screen, population patch clamp on CHO cells stably expressing hERG.
As for `O=C(CC1C(=O)NCCN1C(=O)Nc1ccccc1)Nc1ccc2c(c1)OCO2` (stereo not shown), the “hERG current change (%, negative = inhibition) at 10uM” value is 6.09%.
Under `CN(C1CCCCC1)S(=O)(=O)c1ccc(-c2ccccn2)s1` stands -15.6%; under `Cc1nn(S(=O)(=O)c2ccc([N+](=O)[O-])cc2)c(C)c1Sc1ccccc1`, -2.78%; under `OC(CN1CCNCC1)Cn1ccc2ccccc21` (stereo not shown), -16.2%.
`CCOC(=O)N1CCN(C(=O)c2ccccc2NC(=O)c2ccc(F)cc2)CC1`: the “hERG current change (%, negative = inhibition) at 10uM” value was determined as 15.4%.
Regarding `CN(CC(=O)N1CCCC1)S(=O)(=O)c1cc(Cl)ccc1Cl`, the “hERG current change (%, negative = inhibition) at 10uM” value is on record as -16%.
Under `CCn1c(-c2ccccc2Cl)nn(CC(=O)Nc2cc(Cl)ccc2Cl)c1=S` stands -23.3%.
Under `Cc1c(NS(=O)(=O)c2cccc([N+](=O)[O-])c2)c(=O)n(-c2ccccc2)n1C` stands 17.1%.
On to `COc1ccccc1C(=O)C1CCCN(C(=O)c2cc(CC(C)C)nc(C)n2)C1` (stereo not shown), for which the “hERG current change (%, negative = inhibition) at 10uM” value is reported as -60.5%.
Under `COc1ccc([N+](=O)[O-])cc1NC(=O)COC(=O)c1ccccc1O` stands 38.8%; under `O=C(NC1CCCCC1)c1ccccc1NC(=O)C1CC(=O)N(c2ccc(Cl)cc2)C1` (stereo not shown), 2.36%; under `O=C(NCc1ccco1)c1ccc(CN2CCOCC2)cc1`, 9.35%.
`O=C(Cn1ccc2ccccc2c1=O)N1CCN(c2cccc(Cl)c2)CC1`: the “hERG current change (%, negative = inhibition) at 10uM” value stood at 5.24%.
Under `O=S1(=O)CCOCCCN1Cc1ccc(Cl)cc1` stands 2.2%; under `CCN(CC(=O)Nc1c(F)cccc1F)C(=O)CSc1nnc(-c2ccco2)n1CC`, 18.3%; under `COc1ccc(C2C(C#N)=C(N)Oc3n[nH]c(C)c32)cc1Cn1nc(C)c([N+](=O)[O-])c1C` (stereo not shown), -36.1%.
In the case of `COc1ccc(-c2nc(-c3ccccc3)nc(N3CCN(C)CC3)c2C#N)cc1`, the “hERG current change (%, negative = inhibition) at 10uM” value is recorded as -1.17%.
Turning to `COCCCNC(=O)c1ccc(CN2CCc3ccccc3C2)cc1`, the “hERG current change (%, negative = inhibition) at 10uM” value was determined as 12.5%.
The value for `Cc1cccc(NC(=O)CCc2nc3sc4c(c3c(=O)[nH]2)CCCC4)c1` was 10.8%; that for `O=C(Nc1cccc(Br)c1)c1ccc(Cl)c(S(=O)(=O)N2CCOCC2)c1` was -0.264%; that for `COc1ccc(Sc2nc(-c3ccccn3)ncc2OC)cc1` was -18.7%.
For the compound `Cc1cc(C)c(NC(=O)NC(=O)c2cccc(F)c2)c(C)n1`, the “hERG current change (%, negative = inhibition) at 10uM” value is 2.64%.
Turning to `Cc1ccc(N)c(C(O)(C(F)(F)F)C(F)(F)F)c1`, the “hERG current change (%, negative = inhibition) at 10uM” value is on record as -4.88%.
For `COc1cc(/C=C/C(=O)N2CCN(c3n[nH]c(=O)[nH]c3=O)CC2)cc(OC)c1OC`, the “hERG current change (%, negative = inhibition) at 10uM” value came to 3.54%.
With `CCOC(=O)CN(C(=O)COc1nc(C)cc(C)c1C#N)c1cccc(Cl)c1`, the “hERG current change (%, negative = inhibition) at 10uM” value was 4.06%.
On to `CCOC(=O)N1CCN(S(=O)(=O)c2ccc3[nH]c(=O)oc3c2)CC1`, for which the “hERG current change (%, negative = inhibition) at 10uM” value was -1.83%.
With `O=C(C(Cc1ccccc1)NS(=O)(=O)c1cccc2cccnc12)N1CCc2ccccc21` (stereo not shown), the “hERG current change (%, negative = inhibition) at 10uM” value is listed as -13.4%.
Under `CCC(C)c1ccc(OCCn2cc(/C=N/NC(=O)CSc3nnc(C)s3)c3ccccc32)cc1` (stereo not shown) stands 18.3%.
The value for `Cc1cccc(-n2c(C)cc(C=C(C#N)C#N)c2C)c1` was 3.91%; that for `Cc1cc2nccc(-c3ccc(Cl)c([N+](=O)[O-])c3)n2n1` was 16.5%.
Under `CC(C)c1ccc(COc2ccc(C(=O)N3CCOCC3)cc2)cc1` stands -9.13%.
`COC(C[C@@H]1O[C@@H]1[C@H](O)COCc1ccccc1)OC`: the “hERG current change (%, negative = inhibition) at 10uM” value is -1.9%.
Turning to `COC(=O)C1=C(c2ccc(OC)c(OC)c2)C[C@@H]2CC[C@H]1N2C(=O)N1CCC(C)CC1`, the “hERG current change (%, negative = inhibition) at 10uM” value came to 5.39%.
Take `COc1ccc(-c2cc(C(F)(F)F)n3nc(C(=O)NCCN4CCOCC4)cc3n2)cc1`: the “hERG current change (%, negative = inhibition) at 10uM” value turned out to be 8.84%.
Under `Cc1cc(C)nc(/N=C(\N)Nc2ccc(C(C)C)cc2)n1` stands -67.5%; under `O=C(NCC(=O)N(c1cccnc1)C(C(=O)NC1CCCCC1)c1ccccc1F)c1ccco1` (stereo not shown), 16%; under `Cc1cc(C)c(C)c(S(=O)(=O)Nc2ccc(C(=O)N3CCCC3)cc2)c1C`, 2.91%.
With `N=C1/C(=C\c2ccc(SCc3ccccc3)o2)C(=O)N=C2SC(CC(=O)N3CCOCC3)=NN12`, the “hERG current change (%, negative = inhibition) at 10uM” value turned out to be 3%.
Under `CCOC(=O)N1CCN(Cc2nc3cc([N+](=O)[O-])ccc3n2C)CC1` stands -24.5%.
Under `C/C(=N\NC(=O)c1ccccc1NC(=O)c1ccc(Cl)cc1)c1ccncc1` stands 4.55%; under `C=CCNC(=O)C1=NOC(CNC(=O)c2c(-c3ccccc3Cl)noc2C)C1` (stereo not shown), 14.8%.
The value for `CC(C)C[NH+]=c1cc(-c2ccccc2)oc2ccc(Cl)cc12.F[B-](F)(F)F` was -87.4%.
Consider `CCOc1ccc(N2CC(C(=O)NCc3nnnn3-c3ccc(C)c(C)c3)CC2=O)cc1` (stereo not shown), for which the “hERG current change (%, negative = inhibition) at 10uM” value is given as -18.8%.
